# Test results published in the supplement of paper PMC12632987.
# In all, about 4,500 sequences were measured (“median log2 fold change of GCK-ALFA target abundance (FLAG IP / Myc IP barcode read proportion)”: median about 0.078, lowest 2% from about -0.6 on). This is one part of the list.
# B1: GBRAP_166_4985 (protein)
# chain: MQEEIVERARKEIEELAEQMKTANDEEQTELIIEIAEVIRKAKEEGVSDEKLLELVRHALELAKELGLNVKVVAGIIAEVSEFDEEMREKIDEIAEEVAA
# B2: GBRAP_95_7029 (protein)
# chain: EDDELAAASLVEVIETYLDLGDEEKARRAAEELVRLMVEEGFVPLPKGISVETAKLIVEEAYKILDEETFEKLFEVILSSLEKEEDKEKVKKYYEELKKE
# B3: GBRAP_160_4396 (protein)
# chain: SEKMEKLKKEIDEIFDEAEEMIEGESPEERKVIVRVMFGEVLLEVEENEEVSDELEDEFGELLDEYEKKAQEAVEKGLEELKEVLEEAREELNELIDKND
# B4: GBRAP_160_4778 (protein)
# chain: SEKVEELKKSIEEAKEEILESIDTESPEETIIVVKGETGLILAEAYELEIDNDELEDALDEIGDELIEEMKKNKNASKEELKKIVEEYTEKALKKIEELT
# B5: GBRAP_128_3304 (protein)
# chain: MNEEAIKKAKELAEKMVEADVEEAAEITKQIVELMAKLSPEEREIVAEIMEEKFKELDAEKLDAVADVLREQRPKLDPETANLVAGLEVEALNEAEEKEE
# B6: GBRAP_184_5338 (protein)
# chain: KTLEVHIPNASLEEVKAALAAELRRAAAEGAALTVTIDAEGYSTEELEELLRWIGEEAKRLGLKDVTVGIDQEVNEEDADRLLEIADEYGIRLTLALSDE
# B7: GBRAP_128_3580 (protein)
# chain: SVEEVKERVRRLLEEMKTADPERRKAIAREIAEEFTKLSLEEAEAAAETIEELLPELSAEDLEILADALREARPKADPEHANLIADVQVAALNEALEKEE
# B8: GBRAP_52_6079 (protein)
# chain: MEEKIKEIAEKIVEAIKAGDLEKALELAKKAIKELSIEEIKEMLKLAAKKVAELGEEEHERFVELLDEVYDLMLEEGISEEDALLIVGDAEAALAKEVAA
# B9: GBRAP_128_3499 (protein)
# chain: SMEEAVEETKELMDKIAEASPEETRELTKELVELIASVNEEVAEAMADAVIEKLPELSAEALEVVADTLEELRPKVNPFVANLLADIQVEALNRLEELEE
# B10: GBRAP_78_6578 (protein)
# chain: EVEEEIDKAIEHLGEARKLARELPEEERNELLYLIVEAESYLLESEENGFDLEYLEEARKHVKEAIELVEKIDHPVAAKIREELEKALEHLEKAIELVKK
# B11: GBRAP_83_6934 (protein)
# chain: AEEITVVANSDTIEEAFEIAIDLHKEEGLKVTLEVSITREDIPLLLEEFEKLAEAGVDVELEILLTGATEEEAEELKKKLLEIAEKYGVKAEVEVELVEP
# B12: GBRAP_52_6096 (protein)
# chain: SAELLEEYARRLVEAARAGDVERATAILLEAVESLSDEEFLEMLRLAAELAAKLPADELERVTEVFLEALDRVAEETGREELMDLAAAEFAAIAYAALQA
# B13: GBRAP_139_3691 (protein)
# chain: SELEEKLEEGRRLTREAVEKGRPALIRLAEFLVSLSEEEREKVAEAIGRELLPLPYDEAEKLFEELIEILLEEFGDEDTAEIVEAAANRTLAEIAVREEA
# B14: GBRAP_184_5161 (protein)
# chain: KVLEFTLEAKNKEEVEEKLEEIREEAKKTKGDLYVILRLENPTKEMLRLILETLGEILEEGLAKNVVLGIENDLDEEMIDFVLELADEKGVRVVVAIPEE
# B15: GBRAP_184_5059 (protein)
# chain: KVFEEVIEAENLEELEEKLKELEEKVKNHKGDLIVLVKVPEFTKEMVETLMARLKEILDKGYASSVTVGLDGKMSEEVRDLAIELADKAGVKLTLALEEE
# B16: GBRAP_128_3566 (protein)
# chain: STAELVARARELLERIKASGPEEARALARELAALIAAASPEAREAIVETILALLPELTPEQLDILADVFREARPTADPATAEALAEIEVEALNVREEKEE
# B17: GBRAP_74_6552 (protein)
# chain: SEELKKEIKKAAEAGDADKLIKLAEEAAEKGNLEALKVALLELAKAAVKAAEAGDEETLEKLIEKIVELLEKIDDLDLSDETLDAIAAAIKAAHELELAK
# B18: GBRAP_80_6843 (protein)
# chain: AAAALAAARAALYAALPEAAPLVDEVIALARELGVPDSVIAELVAALAELAAADPALAAALLEELLADLRELKEEGRTDEAEAVVRGYAGEALLAAEELE
# B19: GBRAP_9_7183 (protein)
# chain: TAEAKQKILENAKEEAELALEVTPEDKKAAIAAAVKEMLDELTALVADPNTTLEELLKALEKGAERIKELAEKELDPETARQIEAILDTAILYAEEIVEE
# B20: GBRAP_9_7111 (protein)
# chain: LADLAAKFKAIVKDLEEELKKVVPEEVKPTVDKGTAAILAAIDAAAADPTVTKEQLLATTKALLAALLKELKAKTTPEVAAAVETEILTAEVEIEEAAEE
# B21: GBRAP_184_5364 (protein)
# chain: EVENLSIDAETAEEVEEKLAAARDEIKASGKPTNLFLFLKNADLETFEKGAKLLAELKAEGLIKRGTIVLDDERTEEEVDKLVKIADKYGVNLVVALKDE
# B22: GBRAP_128_3441 (protein)
# chain: SQEELLKKAFELIDEIVKSDVETAKELTKKLAEVLKELNEEGRDKVVEYFEEKAKELSEEKLEAVEDALREEIPKADPLTANYLAEMAVIAGERILELEE
# B23: GBRAP_184_5138 (protein)
# chain: KTLNASIEAKTVEEAIEQAKKAVEEAKKKNAKLNLFVFADGLSVEEIKELMEEIKKIIEESGLKDANVTLVVTADEEEADKIIEIADELGIRVVVALEEE
# B24: GBRAP_128_3591 (protein)
# chain: SVEEVRAWTRELLEKMKTADEATRKALADELAERFLTLSREEQEALAETVEELLPELSAEDLDILADAFEAAIPKADPETANLLADIAVAALNEAEEKEE
# B25: GBRAP_128_3207 (protein)
# chain: VDPETLAELRALADRVAETKTDEAIAAFAAAIAEALKAGKINLDALEEIVRYLGKKLSEEDIVRAMDAFRAALADVGADALAVALGELGEVLMEKEEEKE
# B26: GBRAP_74_6510 (protein)
# chain: MEELLAALREAAEAGDVDAVVELAREIIAEGSLEAIEEAARILVEFVERHLDELSPEELERLIDVLAELADRLLEEGGRSDVILAVADAMVALEERLAAL
# B27: GBRAP_52_5996 (protein)
# chain: AEARIRALAEELVAAVLAGDEERVRAILRRIAAELSDEEIVETVRLATRLLARDPRATLEDLARFIDIVEEVLEEEGKSDRLIADVLGAIAEAIAEVEAE
# B28: GBRAP_48_5830 (protein)
# chain: MKIDLEKLEALVKETVEEMKELYEEAKKEGLSDEDILKMIKAELGDLALELEEEGYTKAADYLLERENRDELAKKLLELFKEGKYEEAYEYLLKKLKEAE
# B29: GBRAP_139_3715 (protein)
# chain: SHLEELIKKAKELVEKYKDDIEKLAKELAELISEADDEGALAIARAAAEEMKDWSWEKWEEFIEKLSKELKKLGFSEDDVLAIEGVLEAVYAKHELAKLE
# Target: GABARAP, O95166
# Sequence (O95166 whole entry, the tested form may be a part): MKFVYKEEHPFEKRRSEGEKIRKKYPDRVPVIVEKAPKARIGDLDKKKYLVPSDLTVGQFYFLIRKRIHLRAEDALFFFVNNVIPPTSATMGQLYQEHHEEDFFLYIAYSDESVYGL
# Experiment: median log2 fold change of GCK-ALFA target abundance (FLAG IP / Myc IP barcode read proportion) (log2 ratio); each designed protein is fused to an ALFA-tag nanobody in HEK293 cells to bring the named protein to FLAG-tagged glucokinase (GCK); Myc marks an untargeted standard; higher = target protein stabilised (more abundant)
# Conditions: target protein: 3xFLAG-MCP-GCK-ALFA reporter; HEK293 landing pad (RPLP)
# Method in brief: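 The readout is target abundance, the per-binder median log2 ratio of FLAG to Myc barcode read proportions. It came from HEK293 landing-pad cells carrying a recombined ALFA-nanobody-fused binder library, induced with 2 μg mL^−1 doxycycline and transfected with a plasmid for a FLAG-tagged target and a Myc-tagged standard. After 48 h, lysates were immunoprecipitated with anti-FLAG and anti-Myc, and circular RNA barcodes were reverse transcribed, amplified and sequenced. Each barcode needed a proportion of at least 10^−7 in both replicates and each binder at least 3 barcodes per replicate, a pseudocount of 10^−6 was added, and the replicates were pooled.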
row,Binder,median log2 fold change
1,B1,0.257
2,B2,0.0288
3,B3,-0.19
4,B4,0.139
5,B5,0.302
6,B6,0.219
7,B7,0.102
8,B8,-0.103
9,B9,0.125
10,B10,0.067
11,B11,0.0136
12,B12,-0.198
13,B13,0.0916
14,B14,-0.0691
15,B15,0.19
16,B16,0.19
17,B17,-0.125
18,B18,-0.213
19,B19,0.387
20,B20,0.346
21,B21,-0.0701
22,B22,0.227
23,B23,0.234
24,B24,0.0868
25,B25,0.198
26,B26,-0.453
27,B27,-0.179
28,B28,0.224
29,B29,0.0358
